# Laboratory results taken from publication PMC11109194.
# Results are given in words; binding and its absence hold for the method and conditions named. Binding seen in cells or lysates may run through a third protein. Some entries that bind do so weakly or less than the wild type. For part of these data: Where a sequence is shown, tags or fusion partners need not be part of it.
# T1: HA-TRAF6 (tumor necrosis factor receptor-associated factor 6) (UniProt P70196)
# T1 sequence: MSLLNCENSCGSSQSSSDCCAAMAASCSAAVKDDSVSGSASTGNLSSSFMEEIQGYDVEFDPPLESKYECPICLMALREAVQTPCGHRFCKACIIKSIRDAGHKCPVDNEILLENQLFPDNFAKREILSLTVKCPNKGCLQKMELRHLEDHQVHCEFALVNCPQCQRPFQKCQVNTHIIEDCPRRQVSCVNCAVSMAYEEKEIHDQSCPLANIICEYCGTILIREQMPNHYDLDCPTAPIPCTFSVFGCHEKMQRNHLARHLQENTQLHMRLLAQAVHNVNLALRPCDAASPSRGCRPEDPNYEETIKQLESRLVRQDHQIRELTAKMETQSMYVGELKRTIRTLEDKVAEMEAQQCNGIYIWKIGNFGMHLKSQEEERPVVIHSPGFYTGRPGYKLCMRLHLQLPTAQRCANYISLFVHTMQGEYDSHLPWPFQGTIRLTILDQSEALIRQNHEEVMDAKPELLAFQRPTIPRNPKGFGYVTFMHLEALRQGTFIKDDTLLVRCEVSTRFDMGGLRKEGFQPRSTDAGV
# T2: TRAF6 (332–530) (UniProt P70196)
# T2 sequence: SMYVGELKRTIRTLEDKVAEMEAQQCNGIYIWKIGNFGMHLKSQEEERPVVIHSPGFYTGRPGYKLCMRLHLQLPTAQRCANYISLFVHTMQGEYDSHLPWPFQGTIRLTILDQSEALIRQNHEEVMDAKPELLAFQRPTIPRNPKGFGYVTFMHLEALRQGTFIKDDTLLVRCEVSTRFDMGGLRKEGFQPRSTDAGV
# T3: HA-TAK1 (transforming growth factor β-activated kinase) (UniProt Q62073)
# T3 sequence: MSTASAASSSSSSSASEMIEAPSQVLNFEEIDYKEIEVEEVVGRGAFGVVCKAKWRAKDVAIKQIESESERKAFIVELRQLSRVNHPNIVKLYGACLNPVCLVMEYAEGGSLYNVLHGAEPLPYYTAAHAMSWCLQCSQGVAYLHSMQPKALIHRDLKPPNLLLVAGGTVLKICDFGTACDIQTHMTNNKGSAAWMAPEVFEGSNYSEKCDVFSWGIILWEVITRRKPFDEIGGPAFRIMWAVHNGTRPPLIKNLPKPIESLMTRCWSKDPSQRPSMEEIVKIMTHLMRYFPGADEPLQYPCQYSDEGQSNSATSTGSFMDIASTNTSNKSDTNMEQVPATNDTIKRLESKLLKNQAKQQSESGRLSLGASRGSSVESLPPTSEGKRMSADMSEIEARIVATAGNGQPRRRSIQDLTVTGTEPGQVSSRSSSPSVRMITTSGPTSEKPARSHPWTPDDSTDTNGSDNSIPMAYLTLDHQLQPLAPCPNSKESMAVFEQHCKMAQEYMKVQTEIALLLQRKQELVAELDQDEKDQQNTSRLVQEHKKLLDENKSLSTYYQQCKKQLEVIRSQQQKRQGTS
# T4: His-TRAF6 (tumor necrosis factor receptor-associated factor 6) (UniProt P70196)
# T4 sequence: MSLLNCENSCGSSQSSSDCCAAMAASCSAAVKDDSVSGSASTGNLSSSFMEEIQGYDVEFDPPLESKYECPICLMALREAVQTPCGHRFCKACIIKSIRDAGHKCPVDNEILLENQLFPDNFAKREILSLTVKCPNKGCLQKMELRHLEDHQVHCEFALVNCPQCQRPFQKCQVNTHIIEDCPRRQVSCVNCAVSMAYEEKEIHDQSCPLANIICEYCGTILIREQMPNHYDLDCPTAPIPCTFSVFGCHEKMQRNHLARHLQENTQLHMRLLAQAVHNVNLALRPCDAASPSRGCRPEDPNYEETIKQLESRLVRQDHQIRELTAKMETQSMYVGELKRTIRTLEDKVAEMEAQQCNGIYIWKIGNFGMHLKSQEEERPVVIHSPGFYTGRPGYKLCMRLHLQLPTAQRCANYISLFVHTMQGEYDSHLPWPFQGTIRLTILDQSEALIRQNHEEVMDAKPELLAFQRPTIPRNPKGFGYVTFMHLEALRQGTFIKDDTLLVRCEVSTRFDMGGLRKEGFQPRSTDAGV
# T5: endogenous TAK1 (mouse (endogenous in BMDMs)) (UniProt Q62073)
# T5 sequence: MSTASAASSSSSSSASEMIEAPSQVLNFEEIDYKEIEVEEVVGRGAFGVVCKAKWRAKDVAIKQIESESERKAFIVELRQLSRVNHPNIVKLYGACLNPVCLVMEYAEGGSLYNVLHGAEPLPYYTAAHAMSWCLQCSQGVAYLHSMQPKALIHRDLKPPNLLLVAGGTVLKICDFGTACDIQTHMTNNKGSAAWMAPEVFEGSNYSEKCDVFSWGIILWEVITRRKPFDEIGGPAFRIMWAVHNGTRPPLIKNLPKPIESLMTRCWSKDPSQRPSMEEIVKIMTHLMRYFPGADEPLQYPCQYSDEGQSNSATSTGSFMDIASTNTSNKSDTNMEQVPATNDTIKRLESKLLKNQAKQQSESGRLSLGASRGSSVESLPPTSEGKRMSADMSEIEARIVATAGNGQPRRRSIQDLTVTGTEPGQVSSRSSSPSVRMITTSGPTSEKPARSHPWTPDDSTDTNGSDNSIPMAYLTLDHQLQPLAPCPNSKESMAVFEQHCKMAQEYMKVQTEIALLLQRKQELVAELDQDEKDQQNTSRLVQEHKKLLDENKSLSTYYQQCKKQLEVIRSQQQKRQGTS
# T6: endogenous TRAF6 (mouse (endogenous in BMDMs)) (UniProt P70196)
# T6 sequence: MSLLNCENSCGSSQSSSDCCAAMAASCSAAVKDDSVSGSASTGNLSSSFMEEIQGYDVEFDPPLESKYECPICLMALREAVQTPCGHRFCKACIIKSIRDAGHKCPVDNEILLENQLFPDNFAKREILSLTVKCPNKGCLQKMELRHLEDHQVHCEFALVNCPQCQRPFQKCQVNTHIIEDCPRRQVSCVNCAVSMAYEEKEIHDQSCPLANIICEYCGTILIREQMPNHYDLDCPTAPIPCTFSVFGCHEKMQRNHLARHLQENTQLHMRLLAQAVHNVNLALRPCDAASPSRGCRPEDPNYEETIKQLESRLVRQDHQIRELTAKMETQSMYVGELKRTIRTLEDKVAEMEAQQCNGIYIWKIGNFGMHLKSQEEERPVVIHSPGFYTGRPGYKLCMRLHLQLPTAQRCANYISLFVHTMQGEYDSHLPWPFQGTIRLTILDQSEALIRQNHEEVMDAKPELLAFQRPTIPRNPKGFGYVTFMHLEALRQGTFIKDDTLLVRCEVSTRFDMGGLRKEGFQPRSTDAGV
# Key:
# [1] = target: T1, HA-TRAF6 (tumor necrosis factor receptor-associated factor 6); assay: co-IP; supplementary panels (Fig. S7b-d, S8a, S8c-d, S9a-b) whose legends were not shown; cells and tags not stated; with or without TIGAR overexpression
# [2] = target: T1, HA-TRAF6 (tumor necrosis factor receptor-associated factor 6); assay: co-IP; HEK293 cells co-transfected with tagged plasmids; lysate incubated with the indicated antibody overnight at 4 °C, protein A/G plus agarose beads, western blot; in some panels a third protein co-expressed, or cells incubated with 5Z-7-OX (0.1, 0.3 or 1 mM, 12 h)
# TRAF6 (332–530) = target: T2, TRAF6 (332–530); assay: co-IP; supplementary panels (Fig. S7b-d, S8a, S8c-d, S9a-b) whose legends were not shown; cells and tags not stated; with or without TIGAR overexpression
# [3] = target: T3, HA-TAK1 (transforming growth factor β-activated kinase); assay: as above
# [4] = target: T3, HA-TAK1 (transforming growth factor β-activated kinase); assay: co-IP; HEK293 cells co-transfected with tagged plasmids; lysate incubated with the indicated antibody overnight at 4 °C, protein A/G plus agarose beads, western blot; in some panels a third protein co-expressed, or cells incubated with 5Z-7-OX (0.1, 0.3 or 1 mM, 12 h)
# [5] = target: T4, His-TRAF6 (tumor necrosis factor receptor-associated factor 6); assay: as above
# [6] = target: T5, endogenous TAK1 (mouse (endogenous in BMDMs)); assay: co-IP; endogenous proteins in murine BMDMs (WT or Tigar KO), with or without LPS (100 ng/ml, 30 min); IP with anti-TAK1 or anti-TRAF6 antibody, western blot
# [7] = target: T6, endogenous TRAF6 (mouse (endogenous in BMDMs)); assay: as above
binder,measurement,setting,value
"His-TAK1 (transforming growth factor β-activated kinase) (protein, UniProt Q62073 1-579) MSTASAASSSSSSSASEMIEAPSQVLNFEEIDYKEIEVEEVVGRGAFGVVCKAKWRAKDVAIKQIESESERKAFIVELRQLSRVNHPNIVKLYGACLNPVCLVMEYAEGGSLYNVLHGAEPLPYYTAAHAMSWCLQCSQGVAYLHSMQPKALIHRDLKPPNLLLVAGGTVLKICDFGTACDIQTHMTNNKGSAAWMAPEVFEGSNYSEKCDVFSWGIILWEVITRRKPFDEIGGPAFRIMWAVHNGTRPPLIKNLPKPIESLMTRCWSKDPSQRPSMEEIVKIMTHLMRYFPGADEPLQYPCQYSDEGQSNSATSTGSFMDIASTNTSNKSDTNMEQVPATNDTIKRLESKLLKNQAKQQSESGRLSLGASRGSSVESLPPTSEGKRMSADMSEIEARIVATAGNGQPRRRSIQDLTVTGTEPGQVSSRSSSPSVRMITTSGPTSEKPARSHPWTPDDSTDTNGSDNSIPMAYLTLDHQLQPLAPCPNSKESMAVFEQHCKMAQEYMKVQTEIALLLQRKQELVAELDQDEKDQQNTSRLVQEHKKLLDENKSLSTYYQQCKKQLEVIRSQQQKRQGTS",binding,[1],binds
same,binding,[2],binds
"TAK1 (1–300) (domain or fragment, UniProt Q62073 1-300) MSTASAASSSSSSSASEMIEAPSQVLNFEEIDYKEIEVEEVVGRGAFGVVCKAKWRAKDVAIKQIESESERKAFIVELRQLSRVNHPNIVKLYGACLNPVCLVMEYAEGGSLYNVLHGAEPLPYYTAAHAMSWCLQCSQGVAYLHSMQPKALIHRDLKPPNLLLVAGGTVLKICDFGTACDIQTHMTNNKGSAAWMAPEVFEGSNYSEKCDVFSWGIILWEVITRRKPFDEIGGPAFRIMWAVHNGTRPPLIKNLPKPIESLMTRCWSKDPSQRPSMEEIVKIMTHLMRYFPGADEPLQY",binding,TRAF6 (332–530),binds
"TIGAR mutant (TMU) (protein, UniProt Q8BZA9 1-269) MPRFALTVIRAGETRLNKEKIIQGQGVDAPLSETGFRQAAAAGQFLSNVQFTHAFSSDLTRTKQTIHGILEKSRFCKDMAVKYDSRLRERMYGVAEGKPLSALRAMAKAAGEECPMFTPPGGETVEQVKMRGKDFFDFICQLILGKAGQRESVLPGAPGSGLESSLAEVFPVGKHGSLGANPKGGTLGLAASILVVSAGAYMRSLFGYFLSDLRCSLPGARDKLELSSITPNTGISVFIIDCEEARQPSIQCVCMNLQEHLNGVTEKQH",binding,[3],binds
same,binding,[1],binds
"TIGAR (1–210) (domain or fragment, UniProt Q8BZA9 1-210) MPRFALTVIRHGETRLNKEKIIQGQGVDAPLSETGFRQAAAAGQFLSNVQFTHAFSSDLTRTKQTIHGILEKSRFCKDMAVKYDSRLRERMYGVAEGKPLSELRAMAKAAGEECPMFTPPGGETVEQVKMRGKDFFDFICQLILGKAGQRESVLPGAPGSGLESSLAEVFPVGKHGSLGANPKGGTLGLAASILVVSHGAYMRSLFGYFL",binding,[4],binds
same,binding,[2],binds
"HA-TAK1 (transforming growth factor β-activated kinase) (protein, UniProt Q62073 1-579) MSTASAASSSSSSSASEMIEAPSQVLNFEEIDYKEIEVEEVVGRGAFGVVCKAKWRAKDVAIKQIESESERKAFIVELRQLSRVNHPNIVKLYGACLNPVCLVMEYAEGGSLYNVLHGAEPLPYYTAAHAMSWCLQCSQGVAYLHSMQPKALIHRDLKPPNLLLVAGGTVLKICDFGTACDIQTHMTNNKGSAAWMAPEVFEGSNYSEKCDVFSWGIILWEVITRRKPFDEIGGPAFRIMWAVHNGTRPPLIKNLPKPIESLMTRCWSKDPSQRPSMEEIVKIMTHLMRYFPGADEPLQYPCQYSDEGQSNSATSTGSFMDIASTNTSNKSDTNMEQVPATNDTIKRLESKLLKNQAKQQSESGRLSLGASRGSSVESLPPTSEGKRMSADMSEIEARIVATAGNGQPRRRSIQDLTVTGTEPGQVSSRSSSPSVRMITTSGPTSEKPARSHPWTPDDSTDTNGSDNSIPMAYLTLDHQLQPLAPCPNSKESMAVFEQHCKMAQEYMKVQTEIALLLQRKQELVAELDQDEKDQQNTSRLVQEHKKLLDENKSLSTYYQQCKKQLEVIRSQQQKRQGTS",binding,[5],binds
"endogenous TIGAR (protein, UniProt Q8BZA9 1-269) MPRFALTVIRHGETRLNKEKIIQGQGVDAPLSETGFRQAAAAGQFLSNVQFTHAFSSDLTRTKQTIHGILEKSRFCKDMAVKYDSRLRERMYGVAEGKPLSELRAMAKAAGEECPMFTPPGGETVEQVKMRGKDFFDFICQLILGKAGQRESVLPGAPGSGLESSLAEVFPVGKHGSLGANPKGGTLGLAASILVVSHGAYMRSLFGYFLSDLRCSLPGARDKLELSSITPNTGISVFIIDCEEARQPSIQCVCMNLQEHLNGVTEKQH",binding,[6],binds
"endogenous TAK1 (enzyme, UniProt Q62073 1-579) MSTASAASSSSSSSASEMIEAPSQVLNFEEIDYKEIEVEEVVGRGAFGVVCKAKWRAKDVAIKQIESESERKAFIVELRQLSRVNHPNIVKLYGACLNPVCLVMEYAEGGSLYNVLHGAEPLPYYTAAHAMSWCLQCSQGVAYLHSMQPKALIHRDLKPPNLLLVAGGTVLKICDFGTACDIQTHMTNNKGSAAWMAPEVFEGSNYSEKCDVFSWGIILWEVITRRKPFDEIGGPAFRIMWAVHNGTRPPLIKNLPKPIESLMTRCWSKDPSQRPSMEEIVKIMTHLMRYFPGADEPLQYPCQYSDEGQSNSATSTGSFMDIASTNTSNKSDTNMEQVPATNDTIKRLESKLLKNQAKQQSESGRLSLGASRGSSVESLPPTSEGKRMSADMSEIEARIVATAGNGQPRRRSIQDLTVTGTEPGQVSSRSSSPSVRMITTSGPTSEKPARSHPWTPDDSTDTNGSDNSIPMAYLTLDHQLQPLAPCPNSKESMAVFEQHCKMAQEYMKVQTEIALLLQRKQELVAELDQDEKDQQNTSRLVQEHKKLLDENKSLSTYYQQCKKQLEVIRSQQQKRQGTS",binding,[7],binds
"TIGAR (211–269) (domain or fragment, UniProt Q8BZA9 211-269) SDLRCSLPGARDKLELSSITPNTGISVFIIDCEEARQPSIQCVCMNLQEHLNGVTEKQH",binding,[4],no binding
same,binding,[2],no binding
